{"source": "the supplement of paper PMC8728848", "binders": {"B1": {"name": "CFEM-CGl (Candida glabrata), Q6FRS0 (protein)", "chain": "VLATPPACLLACVAQVSKQSSQCHTLNQVGCFCENENTAIKNCLDSICPNGNSDAAYTAFKNSCGDVGKAVASV"}}, "experiment_in_all_cases": "glycan array binding signal (z-score within array); higher = stronger binding", "conditions_in_all_cases": "glycan notation: IUPAC condensed, linker removed", "key": {"[1]": {"molecular_target": "Fuc(a1-3)[Gal3S(b1-4)]GlcNAc", "summary_of_the_method": "(§1)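 The binding signal is a Z-score computed within each array. Data were drawn from 3228 arrays in the Consortium for Functional Glycomics database, restricted to those with a known protein sequence. Scores were averaged over arrays of the same protein sequence at different concentrations or buffers, and over linkers, and negative values can be taken as non-binding.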"}, "[2]": {"molecular_target": "Fuc(a1-3)[Gal3S(b1-4)]GlcNAc6S", "summary_of_the_method": "as §1"}, "[3]": {"molecular_target": "Fuc(a1-3)[GalNAc(b1-4)]GlcNAc", "summary_of_the_method": "as §1"}, "[4]": {"molecular_target": "Fuc(a1-3)[GalNAc(b1-4)]GlcNAc6S", "summary_of_the_method": "as §1"}, "Fuc(a1-4)GlcNAc": {"molecular_target": "Fuc(a1-4)GlcNAc", "summary_of_the_method": "as §1"}, "Fuc(b1-3)GlcNAc": {"molecular_target": "Fuc(b1-3)GlcNAc", "summary_of_the_method": "as §1"}, "Gal(a1-2)Gal": {"molecular_target": "Gal(a1-2)Gal", "summary_of_the_method": "as §1"}, "Gal(a1-3)Gal": {"molecular_target": "Gal(a1-3)Gal", "summary_of_the_method": "as §1"}, "Gal(a1-3)Gal(b1-3)GlcNAc": {"molecular_target": "Gal(a1-3)Gal(b1-3)GlcNAc", "summary_of_the_method": "as §1"}, "[5]": {"molecular_target": "Gal(a1-3)Gal(b1-3)GlcNAc(b1-2)Man", "summary_of_the_method": "as §1"}, "[6]": {"molecular_target": "Gal(a1-3)Gal(b1-3)GlcNAc(b1-2)Man(a1-3)[Gal(a1-3)Gal(b1-3)GlcNAc(b1-2)Man(a1-6)]Man(b1-4)GlcNAc(b1-4)GlcNAc", "summary_of_the_method": "as §1"}, "[7]": {"molecular_target": "Gal(a1-3)Gal(b1-3)GlcNAc(b1-3)GalNAc", "summary_of_the_method": "as §1"}, "[8]": {"molecular_target": "Gal(a1-3)Gal(b1-3)GlcNAc(b1-6)GalNAc", "summary_of_the_method": "as §1"}, "[9]": {"molecular_target": "Gal(a1-3)Gal(b1-3)[Fuc(a1-4)]GlcNAc(b1-2)Man(a1-3)[Gal(a1-3)Gal(b1-3)[Fuc(a1-4)]GlcNAc(b1-2)Man(a1-6)]Man(b1-4)GlcNAc(b1-4)GlcNAc", "summary_of_the_method": "as §1"}, "Gal(a1-3)Gal(b1-4)Glc": {"molecular_target": "Gal(a1-3)Gal(b1-4)Glc", "summary_of_the_method": "as §1"}, "Gal(a1-3)Gal(b1-4)GlcNAc": {"molecular_target": "Gal(a1-3)Gal(b1-4)GlcNAc", "summary_of_the_method": "as §1"}, "[10]": {"molecular_target": "Gal(a1-3)Gal(b1-4)GlcNAc(b1-2)Man", "summary_of_the_method": "as §1"}, "[11]": {"molecular_target": "Gal(a1-3)Gal(b1-4)GlcNAc(b1-2)Man(a1-3)[Gal(a1-3)Gal(b1-4)GlcNAc(b1-2)Man(a1-6)]Man(b1-4)GlcNAc(b1-4)GlcNAc", "summary_of_the_method": "as §1"}, "[12]": {"molecular_target": "Gal(a1-3)Gal(b1-4)GlcNAc(b1-3)GalNAc", "summary_of_the_method": "as §1"}, "[13]": {"molecular_target": "Gal(a1-3)Gal(b1-4)GlcNAc(b1-6)GalNAc", "summary_of_the_method": "as §1"}, "[14]": {"molecular_target": "Gal(a1-3)Gal(b1-4)[Fuc(a1-3)]GlcNAc", "summary_of_the_method": "as §1"}, "[15]": {"molecular_target": "Gal(a1-3)Gal(b1-4)[Fuc(a1-3)]GlcNAc(b1-2)Man(a1-3)[Gal(a1-3)Gal(b1-4)[Fuc(a1-3)]GlcNAc(b1-2)Man(a1-6)]Man(b1-4)GlcNAc(b1-4)GlcNAc", "summary_of_the_method": "as §1"}, "Gal(a1-3)GalNAc": {"molecular_target": "Gal(a1-3)GalNAc", "summary_of_the_method": "as §1"}, "[16]": {"molecular_target": "Gal(a1-3)[Gal(a1-4)]Gal(b1-4)GlcNAc", "summary_of_the_method": "as §1"}, "[17]": {"molecular_target": "Gal(a1-4)Gal(b1-3)GlcNAc(b1-2)Man(a1-3)[Gal(a1-4)Gal(b1-3)GlcNAc(b1-2)Man(a1-6)]Man(b1-4)GlcNAc(b1-4)GlcNAc", "summary_of_the_method": "as §1"}, "Gal(a1-4)Gal(b1-4)Glc": {"molecular_target": "Gal(a1-4)Gal(b1-4)Glc", "summary_of_the_method": "as §1"}, "Gal(a1-4)Gal(b1-4)GlcNAc": {"molecular_target": "Gal(a1-4)Gal(b1-4)GlcNAc", "summary_of_the_method": "as §1"}, "[18]": {"molecular_target": "Gal(a1-4)Gal(b1-4)GlcNAc(b1-2)Man(a1-3)[Gal(a1-4)Gal(b1-4)GlcNAc(b1-2)Man(a1-6)]Man(b1-4)GlcNAc(b1-4)GlcNAc", "summary_of_the_method": "as §1"}, "[19]": {"molecular_target": "Gal(a1-4)Gal(b1-4)GlcNAc(b1-3)Gal(b1-4)Glc", "summary_of_the_method": "as §1"}, "Gal(a1-4)GlcNAc": {"molecular_target": "Gal(a1-4)GlcNAc", "summary_of_the_method": "as §1"}, "Gal(a1-6)Glc": {"molecular_target": "Gal(a1-6)Glc", "summary_of_the_method": "as §1"}, "Gal(b1-2)Gal": {"molecular_target": "Gal(b1-2)Gal", "summary_of_the_method": "as §1"}, "Gal(b1-3)Gal": {"molecular_target": "Gal(b1-3)Gal", "summary_of_the_method": "as §1"}, "Gal(b1-3)Gal(b1-4)GlcNAc": {"molecular_target": "Gal(b1-3)Gal(b1-4)GlcNAc", "summary_of_the_method": "as §1"}, "Gal(b1-3)GalNAc": {"molecular_target": "Gal(b1-3)GalNAc", "summary_of_the_method": "as §1"}, "[20]": {"molecular_target": "Gal(b1-3)GalNAc(a1-3)[Fuc(a1-2)]Gal(b1-4)Glc", "summary_of_the_method": "as §1"}, "[21]": {"molecular_target": "Gal(b1-3)GalNAc(a1-3)[Fuc(a1-2)]Gal(b1-4)GlcNAc", "summary_of_the_method": "as §1"}, "Gal(b1-3)GalNAc(b1-3)Gal": {"molecular_target": "Gal(b1-3)GalNAc(b1-3)Gal", "summary_of_the_method": "as §1"}, "[22]": {"molecular_target": "Gal(b1-3)GalNAc(b1-3)Gal(a1-4)Gal(b1-4)Glc", "summary_of_the_method": "as §1"}, "[23]": {"molecular_target": "Gal(b1-3)GalNAc(b1-4)Gal(b1-4)Glc", "summary_of_the_method": "as §1"}, "[24]": {"molecular_target": "Gal(b1-3)GalNAc(b1-4)[Neu5Ac(a2-3)]Gal(b1-4)Glc", "summary_of_the_method": "as §1"}, "Gal(b1-3)GlcNAc": {"molecular_target": "Gal(b1-3)GlcNAc", "summary_of_the_method": "as §1"}, "[25]": {"molecular_target": "Gal(b1-3)GlcNAc(a1-3)Gal(b1-4)GlcNAc", "summary_of_the_method": "as §1"}, "[26]": {"molecular_target": "Gal(b1-3)GlcNAc(a1-6)Gal(b1-4)GlcNAc", "summary_of_the_method": "as §1"}, "Gal(b1-3)GlcNAc(b1-2)Man": {"molecular_target": "Gal(b1-3)GlcNAc(b1-2)Man", "summary_of_the_method": "as §1"}}, "note": "Some of the results follow."}
{"binder": "B1", "values": [{"measurement": "glycan array binding signal (z-score)", "setting": "[1]", "value": -0.184}, {"measurement": "glycan array binding signal (z-score)", "setting": "[2]", "value": 0.702}, {"measurement": "glycan array binding signal (z-score)", "setting": "[3]", "value": -0.139}, {"measurement": "glycan array binding signal (z-score)", "setting": "[4]", "value": -0.476}, {"measurement": "glycan array binding signal (z-score)", "setting": "Fuc(a1-4)GlcNAc", "value": -0.026}, {"measurement": "glycan array binding signal (z-score)", "setting": "Fuc(b1-3)GlcNAc", "value": -0.346}, {"measurement": "glycan array binding signal (z-score)", "setting": "Gal(a1-2)Gal", "value": -0.073}, {"measurement": "glycan array binding signal (z-score)", "setting": "Gal(a1-3)Gal", "value": -0.361}, {"measurement": "glycan array binding signal (z-score)", "setting": "Gal(a1-3)Gal(b1-3)GlcNAc", "value": -0.314}, {"measurement": "glycan array binding signal (z-score)", "setting": "[5]", "value": -0.042}, {"measurement": "glycan array binding signal (z-score)", "setting": "[6]", "value": -0.158}, {"measurement": "glycan array binding signal (z-score)", "setting": "[7]", "value": -0.369}, {"measurement": "glycan array binding signal (z-score)", "setting": "[8]", "value": 0.089}, {"measurement": "glycan array binding signal (z-score)", "setting": "[9]", "value": -0.08}, {"measurement": "glycan array binding signal (z-score)", "setting": "Gal(a1-3)Gal(b1-4)Glc", "value": -0.376}, {"measurement": "glycan array binding signal (z-score)", "setting": "Gal(a1-3)Gal(b1-4)GlcNAc", "value": -0.172}, {"measurement": "glycan array binding signal (z-score)", "setting": "[10]", "value": -0.401}, {"measurement": "glycan array binding signal (z-score)", "setting": "[11]", "value": -0.147}, {"measurement": "glycan array binding signal (z-score)", "setting": "[12]", "value": -0.325}, {"measurement": "glycan array binding signal (z-score)", "setting": "[13]", "value": -0.193}, {"measurement": "glycan array binding signal (z-score)", "setting": "[14]", "value": -0.1}, {"measurement": "glycan array binding signal (z-score)", "setting": "[15]", "value": 0.334}, {"measurement": "glycan array binding signal (z-score)", "setting": "Gal(a1-3)GalNAc", "value": -0.246}, {"measurement": "glycan array binding signal (z-score)", "setting": "[16]", "value": -0.286}, {"measurement": "glycan array binding signal (z-score)", "setting": "[17]", "value": -0.389}, {"measurement": "glycan array binding signal (z-score)", "setting": "Gal(a1-4)Gal(b1-4)Glc", "value": -0.153}, {"measurement": "glycan array binding signal (z-score)", "setting": "Gal(a1-4)Gal(b1-4)GlcNAc", "value": 0.004}, {"measurement": "glycan array binding signal (z-score)", "setting": "[18]", "value": -0.261}, {"measurement": "glycan array binding signal (z-score)", "setting": "[19]", "value": -0.362}, {"measurement": "glycan array binding signal (z-score)", "setting": "Gal(a1-4)GlcNAc", "value": 0.181}, {"measurement": "glycan array binding signal (z-score)", "setting": "Gal(a1-6)Glc", "value": 0.158}, {"measurement": "glycan array binding signal (z-score)", "setting": "Gal(b1-2)Gal", "value": -0.181}, {"measurement": "glycan array binding signal (z-score)", "setting": "Gal(b1-3)Gal", "value": 3.15}, {"measurement": "glycan array binding signal (z-score)", "setting": "Gal(b1-3)Gal(b1-4)GlcNAc", "value": 2.81}, {"measurement": "glycan array binding signal (z-score)", "setting": "Gal(b1-3)GalNAc", "value": 2.44}, {"measurement": "glycan array binding signal (z-score)", "setting": "[20]", "value": 0.176}, {"measurement": "glycan array binding signal (z-score)", "setting": "[21]", "value": 0.168}, {"measurement": "glycan array binding signal (z-score)", "setting": "Gal(b1-3)GalNAc(b1-3)Gal", "value": 6.73}, {"measurement": "glycan array binding signal (z-score)", "setting": "[22]", "value": 0.709}, {"measurement": "glycan array binding signal (z-score)", "setting": "[23]", "value": 9.88}, {"measurement": "glycan array binding signal (z-score)", "setting": "[24]", "value": 1.27}, {"measurement": "glycan array binding signal (z-score)", "setting": "Gal(b1-3)GlcNAc", "value": -0.469}, {"measurement": "glycan array binding signal (z-score)", "setting": "[25]", "value": -0.285}, {"measurement": "glycan array binding signal (z-score)", "setting": "[26]", "value": -0.322}, {"measurement": "glycan array binding signal (z-score)", "setting": "Gal(b1-3)GlcNAc(b1-2)Man", "value": 0.222}]}
